Where a chain is given by its changes, count along the chain named. The list shows a part of the results.
T1: RBFOX1 RRM RbFoxmut (Fox-RRM*) (Homo sapiens, UniProt Q9NWB1 109-208, R118D;E147R;N151S;E152T)
T1 sequence: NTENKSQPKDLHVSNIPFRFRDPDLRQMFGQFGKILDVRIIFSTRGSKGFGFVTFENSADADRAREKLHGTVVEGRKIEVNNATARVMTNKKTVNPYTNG

B1: GUAACUC (DNA:RNA)
RNA: GGGAGACCGGAAUUCAGAUUGUCCGUAACUCUUAAAUCCCGUCGUAGCCACCA
DNA 1: CAATCTGAATTCCGGTCTCCC
DNA 2: TGGTGGCTACGACGGGATT
B2: UAUCACA (DNA:RNA)
RNA: GGGAGACCGGAAUUCAGAUUGUCCUAUCACAUUAAAUCCCGUCGUAGCCACCA
DNA 1: CAATCTGAATTCCGGTCTCCC
DNA 2: TGGTGGCTACGACGGGATT
B3: UGUACGG (DNA:RNA)
RNA: B1 RNA with G25U, U26G, A27U, U30G, C31G
DNA 1: CAATCTGAATTCCGGTCTCCC
DNA 2: TGGTGGCTACGACGGGATT
B4: UCGUAGG (DNA:RNA)
RNA: B2 RNA with A26C, U27G, C28U, C30G, A31G
DNA 1: CAATCTGAATTCCGGTCTCCC
DNA 2: TGGTGGCTACGACGGGATT
B5: AACGGGU (DNA:RNA)
RNA: B2 RNA with U25A, U27C, C28G, A29G, C30G, A31U
DNA 1: CAATCTGAATTCCGGTCTCCC
DNA 2: TGGTGGCTACGACGGGATT
B6: AGACAAU (DNA:RNA)
RNA: B2 RNA with U25A, A26G, U27A, C30A, A31U
DNA 1: CAATCTGAATTCCGGTCTCCC
DNA 2: TGGTGGCTACGACGGGATT
B7: ACACGUA (DNA:RNA)
RNA: B1 RNA with G25A, U26C, A28C, C29G, C31A
DNA 1: CAATCTGAATTCCGGTCTCCC
DNA 2: TGGTGGCTACGACGGGATT
B8: UUCGCCA (DNA:RNA)
RNA: B2 RNA with A26U, U27C, C28G, A29C
DNA 1: CAATCTGAATTCCGGTCTCCC
DNA 2: TGGTGGCTACGACGGGATT
B9: GGCCCCG (DNA:RNA)
RNA: B1 RNA with U26G, A27C, A28C, U30C, C31G
DNA 1: CAATCTGAATTCCGGTCTCCC
DNA 2: TGGTGGCTACGACGGGATT
B10: AGUUGCA (DNA:RNA)
RNA: B2 RNA with U25A, A26G, C28U, A29G
DNA 1: CAATCTGAATTCCGGTCTCCC
DNA 2: TGGTGGCTACGACGGGATT
B11: CGUGACC (DNA:RNA)
RNA: B2 RNA with U25C, A26G, C28G, A31C
DNA 1: CAATCTGAATTCCGGTCTCCC
DNA 2: TGGTGGCTACGACGGGATT
B12: CCCGUAA (DNA:RNA)
RNA: B2 RNA with U25C, A26C, U27C, C28G, A29U, C30A
DNA 1: CAATCTGAATTCCGGTCTCCC
DNA 2: TGGTGGCTACGACGGGATT
B13: UCCAUAG (DNA:RNA)
RNA: B1 RNA with G25U, U26C, A27C, C29U, U30A, C31G
DNA 1: CAATCTGAATTCCGGTCTCCC
DNA 2: TGGTGGCTACGACGGGATT
B14: AACUGGU (DNA:RNA)
RNA: B2 RNA with U25A, U27C, C28U, A29G, C30G, A31U
DNA 1: CAATCTGAATTCCGGTCTCCC
DNA 2: TGGTGGCTACGACGGGATT
B15: AUGAUGA (DNA:RNA)
RNA: B1 RNA with G25A, A27G, C29U, U30G, C31A
DNA 1: CAATCTGAATTCCGGTCTCCC
DNA 2: TGGTGGCTACGACGGGATT
B16: CCUUAAU (DNA:RNA)
RNA: B2 RNA with U25C, A26C, C28U, C30A, A31U
DNA 1: CAATCTGAATTCCGGTCTCCC
DNA 2: TGGTGGCTACGACGGGATT
B17: ACUCCAG (DNA:RNA)
RNA: B2 RNA with U25A, A26C, A29C, C30A, A31G
DNA 1: CAATCTGAATTCCGGTCTCCC
DNA 2: TGGTGGCTACGACGGGATT
B18: UUCCGUA (DNA:RNA)
RNA: B2 RNA with A26U, U27C, A29G, C30U
DNA 1: CAATCTGAATTCCGGTCTCCC
DNA 2: TGGTGGCTACGACGGGATT
B19: CGGUCAA (DNA:RNA)
RNA: B1 RNA with G25C, U26G, A27G, A28U, U30A, C31A
DNA 1: CAATCTGAATTCCGGTCTCCC
DNA 2: TGGTGGCTACGACGGGATT
B20: ACAUAUU (DNA:RNA)
RNA: B1 RNA with G25A, U26C, A28U, C29A, C31U
DNA 1: CAATCTGAATTCCGGTCTCCC
DNA 2: TGGTGGCTACGACGGGATT
B21: UAGAGGA (DNA:RNA)
RNA: B2 RNA with U27G, C28A, A29G, C30G
DNA 1: CAATCTGAATTCCGGTCTCCC
DNA 2: TGGTGGCTACGACGGGATT
B22: CACCUCA (DNA:RNA)
RNA: B2 RNA with U25C, U27C, A29U
DNA 1: CAATCTGAATTCCGGTCTCCC
DNA 2: TGGTGGCTACGACGGGATT
B23: GCCACCU (DNA:RNA)
RNA: B1 RNA with U26C, A27C, U30C, C31U
DNA 1: CAATCTGAATTCCGGTCTCCC
DNA 2: TGGTGGCTACGACGGGATT
B24: CUCUGGA (DNA:RNA)
RNA: B1 RNA with G25C, A27C, A28U, C29G, U30G, C31A
DNA 1: CAATCTGAATTCCGGTCTCCC
DNA 2: TGGTGGCTACGACGGGATT
B25: GCUGAAU (DNA:RNA)
RNA: B2 RNA with U25G, A26C, C28G, C30A, A31U
DNA 1: CAATCTGAATTCCGGTCTCCC
DNA 2: TGGTGGCTACGACGGGATT
B26: UUGGUGU (DNA:RNA)
RNA: B1 RNA with G25U, A27G, A28G, C29U, U30G, C31U
DNA 1: CAATCTGAATTCCGGTCTCCC
DNA 2: TGGTGGCTACGACGGGATT
B27: UCGUAAC (DNA:RNA)
RNA: B2 RNA with A26C, U27G, C28U, C30A, A31C
DNA 1: CAATCTGAATTCCGGTCTCCC
DNA 2: TGGTGGCTACGACGGGATT
B28: CGUUAGA (DNA:RNA)
RNA: B2 RNA with U25C, A26G, C28U, C30G
DNA 1: CAATCTGAATTCCGGTCTCCC
DNA 2: TGGTGGCTACGACGGGATT
B29: GGUCCGC (DNA:RNA)
RNA: B1 RNA with U26G, A27U, A28C, U30G
DNA 1: CAATCTGAATTCCGGTCTCCC
DNA 2: TGGTGGCTACGACGGGATT
B30: GGACCCC (DNA:RNA)
RNA: B1 RNA with U26G, A28C, U30C
DNA 1: CAATCTGAATTCCGGTCTCCC
DNA 2: TGGTGGCTACGACGGGATT
B31: GUCCCAC (DNA:RNA)
RNA: B1 RNA with A27C, A28C, U30A
DNA 1: CAATCTGAATTCCGGTCTCCC
DNA 2: TGGTGGCTACGACGGGATT

Biological target: T1, RBFOX1 RRM RbFoxmut (Fox-RRM*)
Test: EMSA; HiTS-Eq, 1 nM pool, 10 min; buffer printed only for the single-RNA assays: 10 mM Tris pH 7.5, 150 mM NaCl, 3.4 mM EDTA, 0.001% NP-40, 30 C
Conditions: tags: His6 N-terminal (pET28a); label: 5' 32P
Outline: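 Purified wild-type or mutant RbFox RRM at increasing concentrations was equilibrated with 1 nM of 5′-radiolabelled RNA carrying 7 randomized nucleotides for 10 min in 50 µL. Unbound RNA was separated by 8% native PAGE and sequenced. Relative association constants came from read-count changes of each RNA species compared with the control reaction, normalised to the cognate motif.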

Row | Binder | binding signal
1 | B1 | 0.057 KA relative to UGCAUGU
2 | B2 | 0.084 KA relative to UGCAUGU
3 | B3 | 0.117 KA relative to UGCAUGU
4 | B4 | 0.116 KA relative to UGCAUGU
5 | B5 | 0.117 KA relative to UGCAUGU
6 | B6 | 0.0449 KA relative to UGCAUGU
7 | B7 | 0.14 KA relative to UGCAUGU
8 | B8 | 0.1 KA relative to UGCAUGU
9 | B9 | 0.127 KA relative to UGCAUGU
10 | B10 | 0.174 KA relative to UGCAUGU
11 | B11 | 0.101 KA relative to UGCAUGU
12 | B12 | 0.0904 KA relative to UGCAUGU
13 | B13 | 0.12 KA relative to UGCAUGU
14 | B14 | 0.113 KA relative to UGCAUGU
15 | B15 | 0.105 KA relative to UGCAUGU
16 | B16 | 0.0901 KA relative to UGCAUGU

Row | Binder | binding signal
17 | B17 | 0.106 KA relative to UGCAUGU
18 | B18 | 0.115 KA relative to UGCAUGU
19 | B19 | 0.0558 KA relative to UGCAUGU
20 | B20 | 0.107 KA relative to UGCAUGU
21 | B21 | 0.0732 KA relative to UGCAUGU
22 | B22 | 0.128 KA relative to UGCAUGU
23 | B23 | 0.0541 KA relative to UGCAUGU
24 | B24 | 0.0625 KA relative to UGCAUGU
25 | B25 | 0.0601 KA relative to UGCAUGU
26 | B26 | 0.168 KA relative to UGCAUGU
27 | B27 | 0.0862 KA relative to UGCAUGU
28 | B28 | 0.118 KA relative to UGCAUGU
29 | B29 | 0.128 KA relative to UGCAUGU
30 | B30 | 0.0627 KA relative to UGCAUGU
31 | B31 | 0.0578 KA relative to UGCAUGU
